The record followed here is paper PMC4336329 (PLoS ONE, 2015).

The campaign covered roughly 310,000 compounds. About 14,000 (4.5%) showed an effect of 50% or more. Effects have a minus sign here. The list shows a part of the results.
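Also: peak tail current of the secondary pulse compared with the same well before compound.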

Chain of human ether-à-go-go-related gene (hERG) potassium channel (Q12809 whole entry, looked up): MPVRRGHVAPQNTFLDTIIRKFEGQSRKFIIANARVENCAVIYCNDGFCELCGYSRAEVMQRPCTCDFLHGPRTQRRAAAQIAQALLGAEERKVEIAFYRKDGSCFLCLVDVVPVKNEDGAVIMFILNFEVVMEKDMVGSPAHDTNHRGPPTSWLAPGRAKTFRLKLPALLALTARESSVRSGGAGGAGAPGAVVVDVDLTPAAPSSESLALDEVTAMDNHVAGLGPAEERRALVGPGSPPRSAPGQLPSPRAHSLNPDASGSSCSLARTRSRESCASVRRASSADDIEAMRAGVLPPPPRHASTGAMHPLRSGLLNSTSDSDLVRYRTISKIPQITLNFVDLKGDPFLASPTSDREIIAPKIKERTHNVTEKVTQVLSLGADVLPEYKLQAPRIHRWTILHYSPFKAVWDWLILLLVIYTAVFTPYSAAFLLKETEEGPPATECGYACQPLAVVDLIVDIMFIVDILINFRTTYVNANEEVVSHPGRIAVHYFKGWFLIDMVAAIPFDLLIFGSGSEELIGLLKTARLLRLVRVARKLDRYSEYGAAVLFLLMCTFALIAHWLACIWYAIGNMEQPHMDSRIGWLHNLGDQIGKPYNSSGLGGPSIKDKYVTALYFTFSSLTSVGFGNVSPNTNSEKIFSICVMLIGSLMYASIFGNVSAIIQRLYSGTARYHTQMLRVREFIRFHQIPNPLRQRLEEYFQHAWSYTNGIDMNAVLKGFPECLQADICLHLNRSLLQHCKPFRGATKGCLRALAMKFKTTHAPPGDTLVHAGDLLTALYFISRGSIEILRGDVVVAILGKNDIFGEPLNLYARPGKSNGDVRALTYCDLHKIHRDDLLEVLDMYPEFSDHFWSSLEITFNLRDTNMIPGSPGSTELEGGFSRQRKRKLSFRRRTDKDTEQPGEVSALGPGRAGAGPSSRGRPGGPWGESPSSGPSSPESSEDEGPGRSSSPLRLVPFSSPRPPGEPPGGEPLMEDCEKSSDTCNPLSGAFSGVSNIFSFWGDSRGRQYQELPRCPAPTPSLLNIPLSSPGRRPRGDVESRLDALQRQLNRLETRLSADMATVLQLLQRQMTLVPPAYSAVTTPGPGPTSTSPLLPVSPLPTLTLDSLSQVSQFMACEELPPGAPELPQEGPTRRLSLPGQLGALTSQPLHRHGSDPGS

This assay addresses human ether-à-go-go-related gene (hERG) potassium channel (human, UniProt Q12809). Put plainly: primary screen, population patch clamp on CHO cells stably expressing hERG.
`CC(=O)Cc1nsc(NC(=O)c2ccccc2Cl)n1`: the “hERG current change (%, negative = inhibition) at 10uM” value worked out at 38.2%.
Consider `O=C(NC12CC3CC(CC(C3)C1)C2)c1cncc(Br)c1`, for which the “hERG current change (%, negative = inhibition) at 10uM” value was -14.8%.
Next, `O=C(O)c1ccc2c(c1)OCCOCCOCCOCCOCCO2`: -64%; `CCOc1ccc(-n2c(=O)c3sccc3n(CC(=O)NCCc3ccc(OC)c(OC)c3)c2=O)cc1`: 13.1%.
As for `COc1ccccc1C(=O)NNC(=O)c1nn(Cc2ccccc2)c(=O)c2ccccc12`, the figure is -14%.
As for `COc1ccc(NC(=O)C(=O)NCCC2=CCCCC2)c(OC)c1`, the figure is 0.834%; as for `Cc1nc2ccccc2c(=O)n1-n1cnnc1`, -2.29%; as for `O=c1oc(/C=C/c2ccc([N+](=O)[O-])s2)nc2ccccc12`, 17.7%.
Turning to `CCC(=O)N1CN(S(=O)(=O)c2ccc(C)cc2)CC1C` (stereo not shown), the “hERG current change (%, negative = inhibition) at 10uM” value is on record as 3.35%.
As for `COC(=O)/C(=N\OCc1ccc(C#N)cc1)c1c(C)nn(C)c1C`, the figure is -29.3%; as for `CCCCSc1cc(=O)n(-c2ccccc2)nc1C(=O)OCC`, 12.9%; as for `Cn1nnnc1P(=O)(c1ccccc1)c1ccccc1`, 7.84%.
As for `Cc1cc(NC(=O)CN2CCN(c3ccccn3)CC2)ccc1Br`, the “hERG current change (%, negative = inhibition) at 10uM” value is -22.7%.
Consider `O=C(CNC(=O)/C(=C\c1ccc(Br)cc1)NC(=O)c1ccccc1)OCc1ccccc1`, for which the “hERG current change (%, negative = inhibition) at 10uM” value is reported as -59.9%.
Turning to `COC(=O)CNC(=O)c1ccccc1[N+](=O)[O-]`, the “hERG current change (%, negative = inhibition) at 10uM” value is given as 12.4%.
As for `O=C(CNc1ccccc1)N/N=C/c1ccc([N+](=O)[O-])o1`, the figure is -39.3%; as for `Cc1ccc(S(=O)(=O)CC(=O)Nc2ccc(S(=O)(=O)Nc3ccccn3)cc2)cc1`, 9.34%.
Next, `Cc1ccc(S(=O)(=O)NCc2ccccc2)cc1C(=O)N1CCCCC1`: -2.54%; `COC(=O)CCN(C1CCCCC1)S(=O)(=O)c1ccc(S(=O)(=O)N2CCCCC2)cc1`: -2.64%; `CC(C)n1c(Nn2cnnc2)nc2ccccc21`: -3.56%.
Next, `O=C(CSc1nnc2c(n1)[nH]c1ccccc12)NC1CCCCC1`: -1.3%.
Turning to `COC(=O)c1cc(C(=O)N2CCN(c3ncccn3)CC2)cc([N+](=O)[O-])c1`, the “hERG current change (%, negative = inhibition) at 10uM” value is -5.19%.
Next, `COc1ccc(S(=O)(=O)N2CCCCC2)cc1NCC(=O)Nc1ccc(C)cc1`: 9.08%; `COc1ccc(C(=O)NCc2nc(C)c(C)s2)cc1OC1CCN(C(C)C)CC1`: -0.645%.
For `COC(=O)c1ccc(COC(=O)CNS(=O)(=O)c2ccc(C)cc2)cc1`, the “hERG current change (%, negative = inhibition) at 10uM” value was found to be 3.3%.
